{"source": "the RNAGym collection of RNA variant scans (doi:10.1093/nar/gkz1192)", "parents": {"B1": {"name": "CPEB3 Ribozyme (parent)", "chain": "UAACAGGGGGCCACAGCAGAAGCGUUCACGUCGCAGCCCCUGUCAGAUUCUGGUGAAUCUGCGAAUUCUGCUGUAUAUCUC"}}, "note": "Read counts are not given, so values of variants with three or more changes are uncertain.", "data": [{"variants_of": "B1", "test": "self-cleavage, relative activity (ratio to wild type); higher = more cleavage; in vitro, sequencing", "how_it_was_run": "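Libraries of CPEB3 self-cleaving ribozyme mutants came from rounds of error-prone PCR and carried barcodes, which DNA sequencing matched to variants. In vitro transcription used T7 RNA polymerase at 37°C for 5 hours, with a further 15 min in DNase I before EDTA stopped the reaction; the ribozymes cleaved during both steps. The RNA was reverse transcribed with template switching and sequenced on Illumina. Relative activity is the cleaved/total read fraction of a variant divided by that of the unmutated ribozyme, averaged over three batches with at least 5 reads.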", "values": [{"variant": "UAACAGGGGGCCACAGCAGAAGCAUUCACGUCGCAGCCCCUGUCAGAAUCUGGUGAAUCUGCGAAUUCUUCUGUAUAUCUC", "self-cleavage": 0.05}, {"variant": "UAACAGGGGGCCACAGCAGAAGCUUUCACGUCGCAGCCCCCGUCAGAUUCUGGUGAAUCUGCGAAUUCCGCUGUAUAUCUC", "self-cleavage": 0.13}, {"variant": "UAACAGGGGGCCACAGCAGAAGCCUUCACGUCGCAGCCCCUGUCAGAUUCCGGUGAAUCUCAGGAUUCUGCUGUGUAUCUC", "self-cleavage": 0.1}, {"variant": "UAACAGGGGGCCACAGCAGAAGCCUUCACGUCGCAGCCCCUAUCAGAUUCUGGUGAGUCUGCGAACUCUGCUGUAUAUCUC", "self-cleavage": 0.08}, {"variant": "UAACAGGGGGCCACAGCAGAAGCCUUCACGCCGCAGCCCCUGUCAGAUUCUGGUGAAUCUGCGUAUUCUGCUGUAUAUCUC", "self-cleavage": 0.07}, {"variant": "UAACAGGGGGCCACAGCAGAAGCUUUCACGUCGCAGCCCCCGUCAGAUUCUGGUGAAUCUGCGAAUUCUGCUGCAUAUCUC", "self-cleavage": 0.19}, {"variant": "UAACAGGGGGCCACAGCAGAAGCAUUCACGUCGCAGCCCCUGUCAGAUUCUGGAGAAUCUGCGGGUUCUGCUGUAUAUCUC", "self-cleavage": 0.07}, {"variant": "UAACAGGGGGCCACAGCAGAAGCCUUCACGUCGCAGCUCCUGUCAGAUUCUGGUGGAUCUGCGAAUUCUGCUGUAUAUCUC", "self-cleavage": 0.07}, {"variant": "UAACAGGGGGCCACAGCAGAAGCCUACACGUCGCGGCCCCUGUCAGAUUCUGGUGGAUCUGCGAAUUCUGCCGUAUAUCUU", "self-cleavage": 0.27}, {"variant": "UAACAGGGGGCCACAGCAGAAGCAUUCACGUCGCAGCCCCUGUCAGAUCCAGGUGAAUCUGCGAAUUCUGCAGUAUAUCUC", "self-cleavage": 0.11}, {"variant": "UAACAGGGGGCCACAGCAGAAGCAUUCACGUCGCAGCCCCUGUCAGAUCCUGGUGAAUCUGUGAAUUCUGCCGUAUAUCUC", "self-cleavage": 0.13}, {"variant": "UAACAGGGGGCCACAGCAGAAGCGAUCGCGUCGCAGCCCCUGUCUGUUUCUGGUGAAUCUGCGAAUUCUGCUGUAUAUCUC", "self-cleavage": 0.15}, {"variant": "UAACAGGGGGCCACAGCAGAAGCCUUCACGUCGCAGCCCCUGUCAGAUUCUGGUGAAUCUGCGAGUUCCGCUGAAUAUCUC", "self-cleavage": 0.15}, {"variant": "UAACAGGGGGCCACAGCAGAAGCCUUCACGUCGCCGCCCCUGUCAGAUUAUGGUGAAUCUGCGAAUUCUGCUGUAUAUCUC", "self-cleavage": 0.08}, {"variant": "UAACAGGGGGCCACAGCAGAAGCCUGCACGUCGCAGCCCCUGCCAGACUCUGGUGAGUCUGCUAAUUCUGCUGUAUAUCUC", "self-cleavage": 0.11}, {"variant": "UAACAGGGGGCCACAGCAGAAGCUUUCACGUCGCAGCCCCUGUCAGAUCCUGGUGAAUCUGCGAUUUCUGCUGUAUAUCUC", "self-cleavage": 0.07}, {"variant": "UAACAGGGGGCCACAGCAGAAGCUUUCACGUCGCAGCUCCUGUCAGAUUCAGGUGAAUCUGCGAAUUCUGCUGUAUAUCUC", "self-cleavage": 0.4}, {"variant": "UAACAGGGGGCCACAGCAGAAGCCUUCGCGUCGCAGCCCCUAUCAGAUUCUGGUGAAUCUGCGAAUUCUGCUGUAUAUCUC", "self-cleavage": 0.22}, {"variant": "UAACAGGGGGCCACAGCAGAAGCCUUCACGUCGCAGCCCCUGUCAGAUUCUGGUGAAUCUGCGAGUUCUGCCGUAUAUCUC", "self-cleavage": 0.11}, {"variant": "UAACAGGGGGCCACAGCAGAAGCAUUCACGUCGCAGCCCCUGUCAGACUCUGGUGAAUCUGCUGAUUCUGCUGCAUAUCUC", "self-cleavage": 0.07}, {"variant": "UAACAGGGGGCCACAGCAGAAGCCUUCAUGUCGCAGCCCCUGUCAGAAUCUGGUGAAUCUGCGAAUUCUGCUGUAUACCUC", "self-cleavage": 0.24}, {"variant": "UAACAGGGGGCCACAGCAGAAGCCUUCACGUCGCAGCCCCUGUCCGAUUCUCGUGAGUCUGCGAAUUCUGCUGUAUUUCUC", "self-cleavage": 0.09}, {"variant": "UAACAGGGGGCCACAGCAGAAGCCUUCACGUCGCAGCCCCUGUCCGACUCUCGUGAAUCUGCGAAUUCUGCUGUAUAUCUC", "self-cleavage": 0.35}, {"variant": "UAACAGGGGGCCACAGCAGAAGCCUACACGUCGCAGCCCCUGUCAGAUUCUGGUGAGUCUGCGAAUUCUCCUGUAUAUCUC", "self-cleavage": 0.1}, {"variant": "UAACAGGGGGCCACAGCAGAAGCGAUCGCGUCGCAGCCCCAGUCAGAUUCUGGUGAAUCUGCGAAUUCUGCUGUAUAUCUC", "self-cleavage": 0.28}, {"variant": "UAACAGGGGGCCACAGCAGAAGCAUUCACGUCGCAGCCCCUGUCAGACGCUGGUGAAUCUGCGGAUUCUGCUGUAUAUCUC", "self-cleavage": 0.07}, {"variant": "UAACAGGGGGCCACAGCAGAAGCUUUCACGUCGCUGCCCCUGUCAGAUUCUGGUGAAUCUGCGAGUACUGCUGUAUAUCUC", "self-cleavage": 0.1}, {"variant": "UAACAGGGGGCCACAGCAGAAGCAUUCACGUCGCAGCCCCUGUCAGAUUCAGGUGAAUCUACGAAUUCUGCUGUAUAUCUC", "self-cleavage": 0.13}, {"variant": "UAACAGGGGGCCACAGCAGAAGCCUUCACGUCGCAGCCCCAGUCAGAUUCUGGCGAAUCUGCGAAUCCUGCUGUAUAUCUC", "self-cleavage": 0.11}, {"variant": "UAACAGGGGGCCACAGCAGAAGCUUUCACGCCGCAGCCCCUGCCAGAUUCUGGUGAAUCUGCGAAUUCUGCUGUAUAACUC", "self-cleavage": 0.14}, {"variant": "UAACAGGGGGCCACAGCAGAAGCCUUCACGUCGCAGCCCCCGUCAGAUUCUGGUGGAUCCGCGAAUUCUGCUAUAUAUAUC", "self-cleavage": 0.28}, {"variant": "UAACAGGGGGCCACAGCAGAAGCUUUCACGUCGCAGCCCCUGUCAGAUUCUGGUGAAUCUGCGGAUUGUGCUGUAUAUCUC", "self-cleavage": 0.08}, {"variant": "UAACAGGGGGCCACAGCAGAAGCCAUCACGUCGCAACCCCUGUCAGAUUCUGGUGAAUCUGCUGAUUCUGCUGUAUAUCUC", "self-cleavage": 0.1}, {"variant": "UAACAGGGGGCCACAGCAGAAGCCUUCACGUCGGAGCCCCUGUCAGAUUCUGGUGAAUCAGCGAAUUCUGCUGUAUGCCUC", "self-cleavage": 0.22}]}]}
